Source: article PMC7819943, “Rice protein-binding microarrays: a tool to detect cis-acting elements near promoter regions in rice”
The list shows a part of the results.

What follows are sequences tested against T1, OsWOX13 (Oryza sativa, UniProt Q5QMM3 1-267) (assay: protein-binding microarray (RPBM); PBS, 2% BSA, 51.3 ng/ul salmon testes DNA, 50 uM zinc acetate, 200 nM TF, 25 C, 1 h; high values mean tight binding). Settings: protein: recombinant; tags: N-terminal polyhistidine and DsRed monomer fusion (pET32a); label: CyDye5-dUTP incorporated in the synthesized complementary strand; 3' TTTTT single-stranded linker to array surface; dsDNA, one strand shown.
T1 sequence: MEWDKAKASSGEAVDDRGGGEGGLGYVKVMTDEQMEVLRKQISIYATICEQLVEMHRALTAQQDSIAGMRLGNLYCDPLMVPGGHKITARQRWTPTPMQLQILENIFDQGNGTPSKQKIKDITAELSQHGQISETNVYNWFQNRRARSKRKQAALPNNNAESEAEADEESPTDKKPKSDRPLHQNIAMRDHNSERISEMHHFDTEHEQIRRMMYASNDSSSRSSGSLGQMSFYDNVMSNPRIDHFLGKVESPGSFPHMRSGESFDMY
In short: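 Transcription factors were made in E. coli BL21-CodonPlus as N-terminal fusions to a polyhistidine tag and DsRed, then purified on Ni–NTA. After primer extension with Cy5-dUTP and blocking with 2% BSA, a custom Agilent array was exposed for 1 h at 25 °C to 200 nM protein in PBS, 2% BSA, salmon testes DNA and 50 µM zinc acetate. Washed arrays were scanned on an Axon 4000B, and the binding signal is per-feature fluorescence intensity in arbitrary units.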
With “GAATTGACTCAGTTGATTGCTGCAGGTGGATGTTATTATACGGAGTCACCTAGTGCAG” the binding signal was 11300 fluorescence intensity (a.u.). For “GTTTAATTAATTATATGTTAATGATTTTCTTTTCATGCCCCGGAGTCACCTAGTGCAG”, the binding signal was 65400 fluorescence intensity (a.u.). In the case of “CCCATATTTGTCTAATTTCTGTGAGCAGTCTACCCATTATCGGAGTCACCTAGTGCAG”, the binding signal is reported as 4420 fluorescence intensity (a.u.). For “ACACCAATTGAACATTTGGATGTAAACATTAGGGATGCTGCGGAGTCACCTAGTGCAG”, the binding signal was 3400 fluorescence intensity (a.u.). For “CGTTCCAATTTCAATCAAACTTTCAATTTTAATGTGAAGTCGGAGTCACCTAGTGCAG”, the binding signal was 19700 fluorescence intensity (a.u.). In the case of “TAATTTGCTAGTACCACTGTAATTTACTAGGCCACTCACGCGGAGTCACCTAGTGCAG”, the binding signal is reported as 3560 fluorescence intensity (a.u.). With “GTTTAATTAATCCTTCATTAGCAAATGTTTACTGTAGCATCGGAGTCACCTAGTGCAG” the binding signal was 29000 fluorescence intensity (a.u.). In the case of “GGAGTAGATTGAAAATTGTCCGATCCGTCTATTAATCAGACGGAGTCACCTAGTGCAG”, the binding signal is reported as 21500 fluorescence intensity (a.u.). In the case of “TATTCAATTAAATGAAAATACACATATATGGAGCACCGATCGGAGTCACCTAGTGCAG”, the binding signal is reported as 17300 fluorescence intensity (a.u.). With “GCCTAATTAATCCATAATTAGCAAAAGTTGACTGTAGCAACGGAGTCACCTAGTGCAG” the binding signal was 47400 fluorescence intensity (a.u.). “GTAAACAAACTCTTATTTAAATTTGTTTATGTAATATCATCGGAGTCACCTAGTGCAG” was tested, and the binding signal was 6300 fluorescence intensity (a.u.). In the case of “CATATGATAGATGGCAATTCGTCCACTAGCATGAACAAATCGGAGTCACCTAGTGCAG”, the binding signal is reported as 12400 fluorescence intensity (a.u.). In the case of “TGTTTGTGCTTAATTAATTAATTGTTGAATAGCCGAATGACGGAGTCACCTAGTGCAG”, the binding signal is reported as 9650 fluorescence intensity (a.u.). With “CAAAACTGAACATGAGATAAATTTGTCCCTGCCAAAATTGCGGAGTCACCTAGTGCAG” the binding signal was 6700 fluorescence intensity (a.u.). With “GTGTAATTTTACGAAAACAAGTCATAAAACCATCGTTTTACGGAGTCACCTAGTGCAG” the binding signal was 4060 fluorescence intensity (a.u.). For “ATGAACTGATAATCACCATTGGCTACTCCATCCAGTTCAACGGAGTCACCTAGTGCAG”, the binding signal was 12000 fluorescence intensity (a.u.). For “ATCTTAAATGGAAAATTGATGATTTTCTTCATAGTTGCATCGGAGTCACCTAGTGCAG”, the binding signal was 43400 fluorescence intensity (a.u.). In the case of “CTTCATTTTAGAAAATTTAATTTCTAGGTTTAAACTTGGACGGAGTCACCTAGTGCAG”, the binding signal is reported as 3560 fluorescence intensity (a.u.). In the case of “CCAAACAAATTTAATCAAAAGTCAGCATGATGCAGTCAAACGGAGTCACCTAGTGCAG”, the binding signal is reported as 9340 fluorescence intensity (a.u.). With “AGTACAAAATTTAAAATTATGTTGCTATTTTATTATATTTCGGAGTCACCTAGTGCAG” the binding signal was 3220 fluorescence intensity (a.u.). “CAAAATAAATTCATTTATCATCCATCATAAATATTCCAATCGGAGTCACCTAGTGCAG” was tested, and the binding signal was 4270 fluorescence intensity (a.u.). With “TGATGTCGTGATTGCAGAACTGTTTTCATATGCGTGTCAACGGAGTCACCTAGTGCAG” the binding signal was 12300 fluorescence intensity (a.u.). For “CAATGACTGAACCAGGACATATGTATACAGTCGCTTCTGTCGGAGTCACCTAGTGCAG”, the binding signal was 4700 fluorescence intensity (a.u.).
